# Hit rate of the full screen: of about 290,000 compounds, about 2,100 (0.72%) were called active. This list was built around the results that the source calls inconclusive (neither active nor inactive); the mix of calls is not that of the screen. Calls come from the whole dose curve; as a rule, active = well fitted inhibition curve with a large enough effect; inconclusive = small, poorly fitted or top-dose-only effect, or effect the other way; inactive = flat fitted curve, though single readings scatter. Where the call is inconclusive, the potency comes from a doubtful curve fit.
# Molecular target: Fructose-bisphosphate aldolase (Giardia intestinalis (strain ATCC 50803 / WB clone C6)) (UniProt A8B2U2)
# Experiment: qHTS Assay for Inhibitors of Fructose-1,6-bisphosphate Aldolase from Giardia Lamblia; note: nearly all actives have a fitted effect of over 55% in size
# Conditions: purified Giardia FBPA; activity, negative = inhibition: at 59.6 µM (top of the series) unless noted
# Outline: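 Giardia FBPA (40 nM reagent) was preincubated 10 min at RT with compound (up to 57.5 uM final), then substrate plus GAPDH/TPI/NAD/arsenate coupling system with diaphorase/resazurin was added; resorufin fluorescence (525/598 nm) was read after 20 min.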
# % is set by controls: 0 for no effect and ±100 for the full control effect; potency is the fitted concentration of half-maximal effect; tags give direction and shape of the fitted curve.
# UniProt A8B2U2, sequence (A8B2U2 whole entry, looked up): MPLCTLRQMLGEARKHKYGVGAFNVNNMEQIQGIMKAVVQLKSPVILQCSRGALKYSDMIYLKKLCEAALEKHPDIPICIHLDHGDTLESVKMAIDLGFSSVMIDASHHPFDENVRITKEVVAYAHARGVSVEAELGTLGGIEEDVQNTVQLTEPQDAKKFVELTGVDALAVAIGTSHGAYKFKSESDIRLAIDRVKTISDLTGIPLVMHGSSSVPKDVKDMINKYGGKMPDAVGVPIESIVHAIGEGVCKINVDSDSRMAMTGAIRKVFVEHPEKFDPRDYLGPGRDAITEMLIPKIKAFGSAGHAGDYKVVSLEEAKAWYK
SMILES,Potency,"activity, negative = inhibition"
COC/C=C/C1=CC2=CC(=O)C(C)(OC(=O)c3ccco3)C(=O)C2=CO1 (stereo unspecified),"inconclusive: 22.3 µM [inhibitor, partial curve]",
OCCN(CCCn1c(C(F)(F)F)nc2ccccc21)c1nc(CN2CCCCC2)cs1,"inconclusive: 22.4 µM [inhibitor, partial curve]",
O=C(NNC(=O)c1ccccn1)c1cccc([N+](=O)[O-])c1,active: 9.98 µM,
CCOC(=O)Cc1nnc(Nc2ccc(C)cc2C)c2ccccc12,,inactive: 5.53%
COc1cc(/C=C2/C(=O)NN(c3ccc(Cl)cc3)C2=O)cc(OC)c1O,"inconclusive: 12.6 µM [inhibitor, partial curve]",
O=C(N/N=C/c1ccc(-c2cccc(C(F)(F)F)c2)o1)c1cccc(F)c1,,inactive: 8.57%
COc1ccccc1CC(=O)Nc1ccc(NC(=O)c2cccs2)cc1,,inactive: -1.11%
CCc1cc[n+](-c2nc([O-])sc2C=O)cc1,"inconclusive: 3.54 µM [inhibitor, full curve]",
CCc1nnc(N/N=C/c2ccc(-c3ccc([N+](=O)[O-])cc3)o2)n1N,active: 4.46 µM,
C/C(=N\NC(=O)c1nnn(-c2nonc2N)c1CN(C)c1ccccc1)c1cccc(O)c1,,inactive: -14.1%
O=C(O)c1nn(-c2ccccc2-c2n[nH]c(=O)[nH]c2=O)c(=O)[nH]c1=O,"inconclusive: 22.4 µM [inhibitor, partial curve, poor fit]",
CC1CN(C2CCN(C(=O)c3ccccc3Cl)CC2)CC(C)O1 (stereo unspecified),"inconclusive: 25.1 µM [inhibitor, single point]",
COc1ccc(NC(=O)c2csc3c2CCCCC3)c(OC)c1,,inactive: -13.2%
NNc1nccc(Nc2ccccc2C(=O)O)n1,"inconclusive: 35.4 µM [inhibitor, single point]",
O=C(CCn1c(=O)oc2ccccc21)NCCN1CCc2ccccc2C1,active: 15.8 µM,
CCOc1cc(C(=O)NCCC(=O)N2CCC3(CC2)NCCc2[nH]cnc23)cc(OCC)c1OCC,"inconclusive: 35.5 µM [inhibitor, single point]",
COc1cc(OC)c2c(-c3cccc(-c4ccc(C(C)=O)cc4)c3)cc(=O)oc2c1,,inactive: -2.73%
CCCS(=O)(=O)c1cn2cccc(N)c2c1S(=O)(=O)CCC,"inconclusive: 19.9 µM [inhibitor, partial curve]",
COc1cc2c(cc1NC(=O)C(C)N1CCN(S(=O)(=O)c3ccccc3[N+](=O)[O-])CC1)oc1ccccc12 (stereo unspecified),,inactive: -8.33%
O=C(CC1SC(=Nc2cccc3ccccc23)N(Cc2ccccn2)C1=O)Nc1ccccc1Br (stereo unspecified),,inactive: -8.67%
CCN1CCN(C(=S)NC(=O)c2cccs2)CC1,"inconclusive: 12.6 µM [inhibitor, partial curve]",
Cc1nnc2n(Cc3ccccc3)c(=O)c3c4c(sc3n12)CN(Cc1ccccc1)CC4,,inactive: -12.1%
CCC1(C)Cc2ccccc2-c2[nH]c(=S)[nH]c(=O)c21 (stereo unspecified),"inconclusive: 25.1 µM [inhibitor, partial curve]",

SMILES,Potency,"activity, negative = inhibition"
c1ccc(-c2ncc3ccccn23)cc1,"inconclusive: 14.1 µM [inhibitor, partial curve]",
COc1ccc(-c2nnc(NC(=O)C3CC3)o2)cc1,"inconclusive: 17.7 µM [inhibitor, single point]",
Cc1noc(C)c1-c1cc(NC2CCNCC2)ncn1,,inactive: -2.55%
Cc1ccc(S(=O)(=O)N2CCOCC2)cc1NC(=O)CNC1CCCC1,"inconclusive: 17.7 µM [inhibitor, partial curve]",
Cc1c(NC(=O)CN2CCN(c3ccccc3)CC2)c(=O)n(-c2ccccc2)n1C,"inconclusive: 6.29 µM [inhibitor, full curve]",
CN1C(=O)/C(=C\C=C2/CCCN2C)N(C)C1=S,"inconclusive: 19.9 µM [inhibitor, single point]",
O=C1C(=O)c2ccccc2C(O)=C1c1cccc([N+](=O)[O-])c1,"inconclusive: 19.9 µM [inhibitor, partial curve]",
CC1(C)CC(=O)C2=C(C1)NC(Nc1nc3ccccc3o1)=NC21CCCCC1,,inactive: 8.91%
O=C(CN1C(=O)c2cccc3cccc1c23)NCC1CCCO1 (stereo unspecified),"inconclusive: 15.8 µM [inhibitor, single point]",
COc1ccc(N2CCC(CNC(=S)Nc3c(C)cccc3C)C2)cc1 (stereo unspecified),"inconclusive: 15.8 µM [inhibitor, partial curve]",
CCCC1CCC(=NNC(=S)NCCc2ccccc2)CC1 (stereo unspecified),"inconclusive: 15.8 µM [inhibitor, partial curve]",
CCCOC(=O)c1ccc(Oc2cn[nH]c2-c2ccc(OC)cc2O)cc1,,inactive: 0.0787%
COc1ccccc1Nc1nc2ccccc2[nH]1,"inconclusive: 22.3 µM [inhibitor, partial curve]",
O=[N+]([O-])c1ccccc1CN1CCN(Cc2ccccn2)CC1,"inconclusive: 15.8 µM [inhibitor, partial curve]",
O=S(=O)(Nc1cc(Sc2cccc3cccnc23)c(O)c2ccccc12)c1ccc(F)cc1,active: 1.12 µM,
O=C(COC(=O)CCSc1ccc(Cl)cc1)NCc1ccccc1,,inactive: -2.16%
Cc1ccc(S(=O)(=O)N2CCN(CC(=O)N/N=C\c3ccc(O)c(O)c3)CC2)cc1,"inconclusive: 19.9 µM [inhibitor, single point]",
CC1=CC(C)(C)Nc2ccc(OC(=O)CN3C(=O)c4cccc5cccc(c45)C3=O)cc21,"inconclusive: 7.92 µM [inhibitor, partial curve]",
Nc1ccc2nc[nH]c2c1,"inconclusive: 7.06 µM [inhibitor, partial curve]",
CCOC(=O)C1CCN(Cc2cccc(Oc3ccc(Cl)cc3)c2)CC1,"inconclusive: 28.2 µM [inhibitor, partial curve]",
Cc1oc(-c2ccccc2F)nc1CS(=O)(=O)CC(=O)NCCCN1CCc2ccccc2C1,,inactive: -15%
COc1ccc(NCC(=O)Nc2ccc(Br)cc2F)c(OC)c1,"inconclusive: 3.15 µM [inhibitor, full curve]",
Cc1c(-c2ccccc2)n[nH]c1C(=O)N=Nc1c(O)[nH]c2ccccc12,"inconclusive: 22.3 µM [inhibitor, partial curve]",

# Reference: PubChem BioAssay AID2451 (National Center for Advancing Translational Sciences (NCATS), 2010)
